In article PMC4336329 (PLoS ONE, 2015):
Out of some 310,000 compounds screened, about 14,000 (4.5%) showed an effect of 50% or more. The effect is printed as a negative number. Some of the results follow.

target: human ether-à-go-go-related gene (hERG) potassium channel (human, UniProt Q12809); assay: primary screen, population patch clamp on CHO cells stably expressing hERG
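Note: peak tail current of the secondary pulse compared with the same well before compound.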

human ether-à-go-go-related gene (hERG) potassium channel, sequence (Q12809 whole entry, looked up): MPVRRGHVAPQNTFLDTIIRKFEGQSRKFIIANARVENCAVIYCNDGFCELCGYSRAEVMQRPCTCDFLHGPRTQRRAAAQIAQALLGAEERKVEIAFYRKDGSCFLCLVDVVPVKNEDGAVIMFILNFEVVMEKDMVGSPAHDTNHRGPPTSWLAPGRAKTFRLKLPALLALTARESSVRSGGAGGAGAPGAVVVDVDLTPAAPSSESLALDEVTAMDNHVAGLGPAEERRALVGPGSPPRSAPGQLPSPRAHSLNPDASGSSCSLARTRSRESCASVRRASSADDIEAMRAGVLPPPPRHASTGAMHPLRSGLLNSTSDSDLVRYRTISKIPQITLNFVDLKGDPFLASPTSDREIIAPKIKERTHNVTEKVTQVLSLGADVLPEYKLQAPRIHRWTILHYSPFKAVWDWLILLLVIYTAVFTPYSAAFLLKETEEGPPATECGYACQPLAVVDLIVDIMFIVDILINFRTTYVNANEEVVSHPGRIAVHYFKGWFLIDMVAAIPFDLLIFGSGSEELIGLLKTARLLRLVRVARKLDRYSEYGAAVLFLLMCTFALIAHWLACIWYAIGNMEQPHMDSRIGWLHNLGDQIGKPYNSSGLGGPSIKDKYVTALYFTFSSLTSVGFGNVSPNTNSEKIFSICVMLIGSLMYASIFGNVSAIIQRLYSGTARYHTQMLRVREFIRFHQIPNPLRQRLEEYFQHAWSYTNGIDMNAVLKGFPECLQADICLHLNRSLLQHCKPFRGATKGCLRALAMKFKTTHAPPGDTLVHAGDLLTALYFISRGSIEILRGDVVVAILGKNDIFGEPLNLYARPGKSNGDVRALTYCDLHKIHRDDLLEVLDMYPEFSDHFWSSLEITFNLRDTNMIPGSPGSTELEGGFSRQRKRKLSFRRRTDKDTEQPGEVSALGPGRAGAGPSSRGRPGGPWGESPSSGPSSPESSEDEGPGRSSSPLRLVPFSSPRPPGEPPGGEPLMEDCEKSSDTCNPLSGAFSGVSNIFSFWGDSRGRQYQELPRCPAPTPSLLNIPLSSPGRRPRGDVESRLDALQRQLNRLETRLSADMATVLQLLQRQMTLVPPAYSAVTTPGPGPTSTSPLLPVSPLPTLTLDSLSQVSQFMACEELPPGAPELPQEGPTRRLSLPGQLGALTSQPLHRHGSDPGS

| SMILES | hERG current change (%, negative = inhibition) at 10uM |
| --- | --- |
| O=C(Nn1cnnc1)c1cc2c(s1)CCCC2 | 0.59% |
| Cc1ccc(CN2CCN(/N=C/c3ccco3)CC2)c(C)c1 | -18.8% |
| CC(=O)N1N=C(c2ccc(Br)cc2)CC1c1cn(C)c2ccccc12 (stereo not shown) | 6.91% |
| O=C(c1ccncc1)N1CCN(S(=O)(=O)c2cccc(C(F)(F)F)c2)CC1 | -31.4% |
| Cc1ccc(CNC(=O)CSCc2ccc(F)cc2)cc1 | -5.13% |
| Fc1ccc(CN2CC[C@H]3C=CCc4cccc(c43)C2)cc1 | -30.2% |
| Cc1nc(C)c(C(=O)Nc2ccc(Oc3ccccc3)cc2)o1 | -26.3% |
| CC(C)c1nnc(NC(=O)CCC(=O)NC2CC2)s1 | 20.2% |
| CN(CC(=O)Nc1cccc(F)c1)C(=O)CCC1CCCCC1 | 17.7% |
| Cn1c(=O)n(C)c2cc(/C=N/NC(=O)c3ccc(Cl)cc3Cl)ccc21 | -12.5% |
| COc1ccc(/C=C(/NC(=O)c2ccc(OC)c(OC)c2)C(=O)NCCc2c[nH]c3ccccc23)cc1 | -46.4% |
| COc1cccc2c1C(=O)c1c(O)c3c(c(O)c1C2=O)C[C@@](O)(C(=O)CO)C[C@@H]3O[C@H]1C[C@H](N)[C@H](O)[C@H](C)O1.Cl | 6.68% |
| Cc1ccc(C)c(N2CCN(C(=O)c3ccc4c(=O)n5c(nc4c3)CCCCC5)CC2)c1 | -40.2% |
| COc1ccc(CC(=O)Nc2cccc(Cl)c2C)cc1S(=O)(=O)N1CCOCC1 | -14.9% |
| CN(C)c1ncc(S(=O)(=O)c2ccccc2)c(-c2ccc(Cl)cc2Cl)n1 | -8.47% |
| COc1ccc(N2C(=O)CC2(C#N)c2ccc(OCc3ccccc3)cc2)cc1 (stereo not shown) | 8.21% |
| CN(C)CCCCOc1ccccc1F.O=C(O)C(=O)O | 14.4% |
| CC(Cc1ccccc1)NCc1ccccc1O.Cl (stereo not shown) | 4.58% |
| Cc1ccc(C(C)NC(=O)CSc2ccc(S(=O)(=O)N3CCOCC3)cn2)cc1C (stereo not shown) | -0.177% |
| Cc1nn(C)cc1/C=N/NC(=S)Nc1ccccc1 | -12.5% |
| CCOc1ccc(NC(=O)CCc2c(C)noc2C)cc1OC | -5.38% |
| Cl.Nc1ccc2nc(Cc3ccccc3)[nH]c2c1 | 13.9% |

| SMILES | hERG current change (%, negative = inhibition) at 10uM |
| --- | --- |
| Cc1ccc(C)c(-n2cc(CN3CCCN(C=O)CC3)c(-c3ccccc3)n2)c1 | -31.9% |
| CC(=O)Nc1ccc(S(=O)(=O)N(C)CCOCc2ccccc2)cc1 | 1.04% |
| Cc1ccc(O)c(NC(=O)c2cccc(S(=O)(=O)N3CCCCC3)c2)c1 | -42.1% |
| CC(=O)[C@@H]1[C@@H](C)N(Cc2ccccc2)C(=O)N[C@H]1c1cccc(C(F)(F)F)c1 | 5.55% |
| COCCn1c(SCc2nc3scc(-c4ccc(Cl)cc4)c3c(=O)[nH]2)nnc1-c1cccc(C)c1 | -17.8% |
| O=C(Nc1ccccc1Oc1ccccc1)c1cccc([N+](=O)[O-])c1 | -31.4% |
| COc1ccc(C(=O)N/N=C(\C)CC(=O)Nc2ccc3c(c2)OCCO3)c(OC)c1 | 12.6% |
| COc1ccc(N(C(=O)c2snc(C(N)=O)c2N)C(C(=O)NC2CCCC2)c2ccc(OC)c(OC)c2)cc1 (stereo not shown) | 10.9% |
| O=C(CN1CCOCC1)Nc1ccccc1-c1ccccc1 | 4.15% |
| Cc1nn(Cc2ccc(F)cc2)c(Cl)c1/C=N/NC(=O)c1cccnc1 | -33.5% |
| Cc1nc2ccccc2n1C1CCN(C(=O)Nc2ccccc2)CC1 | -60.5% |
| Cc1cc(S(=O)(=O)NCC(=O)O)ccc1F | -27.1% |
| Cc1ccc(N2CC(C(=O)N3CCC4(CC3)CC(=O)c3ccccc3O4)CC2=O)cc1 (stereo not shown) | -71.6% |
| COc1ccc(NC(=O)[C@@H](NC(=O)N2C[C@H]3C[C@@H](C2)c2cccc(=O)n2C3)C(C)C)cc1OC | 21.1% |
| Clc1ccc(Sc2cnc3ccccc3n2)cc1 | 5.72% |
| Cc1ccc(S(=O)(=O)NCc2ccccc2)cc1C(=O)N1CCCC(C(F)(F)F)C1 (stereo not shown) | -38% |
| CCn1nnc(-c2ccccc2NS(=O)(=O)c2ccc(S(=O)(=O)N3CCCCCC3)cc2)n1 | -0.0422% |
| COc1ccc(CN(Cc2ccc(C(=O)O)cc2)C(=S)Nc2cc(C)cc(C)c2)cc1OC | 7.52% |
| O=C(COc1ccc(S(=O)(=O)N2CCOCC2)cc1)Nc1ccccc1F | 1.54% |
| Cc1ccc(NC(=O)c2cc(-c3ccccc3)n[nH]2)cc1 | 18.3% |
| CC(=O)Nc1ccc(S(=O)(=O)NCCNS(=O)(=O)c2ccc(NC(C)=O)cc2)cc1 | 26.8% |
| CCOC(=O)N1CCN(C(=O)CN(C)S(=O)(=O)c2ccc(Cl)cc2)CC1 | 8.13% |

| SMILES | hERG current change (%, negative = inhibition) at 10uM |
| --- | --- |
| O=C(N/N=C\c1cc(Cl)ccc1O)c1ccc(S(=O)(=O)N2CCCCC2)cc1 | -2% |
| CCOC(=O)c1c(C)[nH]c(C)c1S(=O)(=O)NCc1cc(C)ccc1C | -6.49% |
| COc1cc(Cl)c(C)cc1NC(=O)COC(=O)c1cc(SC)ccc1Cl | 8.99% |
| CC1CC/C(=N/Nc2ccccc2)C(=O)N1 (stereo not shown) | -2.54% |
| CCOc1ccc(N(CC(=O)O)S(=O)(=O)c2ccc(F)cc2)cc1 | -13% |
| COCCN(CC1CCCN(C2Cc3ccccc3C2)C1)C(=O)CCC(N)=O (stereo not shown) | -75.1% |
| O=C(O)CCNC(=O)c1cncc(Br)c1 | 3.16% |
| Cn1c(=O)c2c(nc(SCC(=O)c3cccs3)n2Cc2ccc(F)cc2)n(C)c1=O | -13.2% |
| O=c1[nH]c(SCc2cccc(F)c2)nc2ccccc12 | 5.94% |
| OCC1CCN(Cc2cn(Cc3ccccc3)nc2-c2cc3ccccc3o2)CC1 | -67% |
| Cc1nn(-c2ccccc2)c(C)c1C(=O)OCC(=O)c1c(N)n(CC(C)C)c(=O)n(C)c1=O | 9.06% |
| CC1=C(C(=O)Nc2ccccc2)C(c2cccnc2)n2nc(-c3cccnc3)nc2N1 (stereo not shown) | -5.97% |
| Cc1ccc(S(=O)(=O)NNC(=O)CCCCC(=O)NNS(=O)(=O)c2ccc(C)cc2)cc1 | 1.4% |
| CC(NC(=O)c1ccccc1)C(=O)N/N=C/c1ccccc1 (stereo not shown) | 14.4% |
| COc1c([N+](=O)[O-])c(=O)n(-c2ccccc2)c2ccccc12 | 5.17% |
| Cc1cc(-c2ccccc2)nc(N(C)NC(=O)C2CC2)c1S(C)(=O)=O | 11.6% |
| O=C(CSC(=S)N1CCCCC1)c1c(F)cccc1F | 34.3% |
| Br.CC(=O)c1sc(N/N=C2\CC3CC2C(C)C3(C)C)nc1C (stereo not shown) | -24.8% |
| CCCNC(=O)NC(=O)COc1ccc2oc3ccccc3c2c1 | 12.3% |
| CCOC(=O)N1CCN(C(=O)CNC(=O)c2nn(-c3ccc(OC)c(Cl)c3)c(=O)c3ccccc23)CC1 | -20.7% |
| N#Cc1ccc(COC(=O)c2ccc3c(=O)[nH]c(CN4CCOCC4)nc3c2)cc1 | -34.1% |
| Cc1ccc(S(=O)(=O)Nc2cccc3c2CCCC3)cc1 | 4.63% |

| SMILES | hERG current change (%, negative = inhibition) at 10uM |
| --- | --- |
| Cn1c(=O)c2c(nc(OCc3ccccc3)n2C)n(C)c1=O | 4.72% |
| CCOC(=O)Cc1cc(=O)n2[nH]c(C)c(-c3ccc(OC)cc3)c2n1 | -17.9% |
| CCOC(=O)N1CCN(Cc2nc3cc(NC(=O)C(C)C)ccc3n2CC)CC1 | 14.3% |
| O=C1CSC(=Nc2ccccc2[N+](=O)[O-])N1 | 1.79% |
| CCOc1ccccc1NCc1nnc(-c2ccccc2)o1 | 5.02% |
| Cc1ccccc1-c1nc(-c2ccccn2)no1 | -3.82% |
| COc1cc2c(cc1OC)C(c1ccc(Br)cc1)N(C(=O)c1ccccc1C(=O)O)CC2 (stereo not shown) | 9.72% |
| O=C(COc1ccccc1Cl)N1CCN(C(=O)c2ccco2)CC1 | -10.8% |
| COc1ccc(N(C)S(=O)(=O)c2ccc3c(c2)oc(=O)n3C)cc1 | 2.38% |
| CC(C)CNS(=O)(=O)c1ccc(CCC(=O)NCc2cccnc2)cc1 | -8.2% |
| COc1ccc(CC(=O)Nc2c(C(=O)N3CCN(c4ncccn4)CC3)oc3ccccc23)cc1 | -63.7% |
| CCn1c2ccccc2c2nn(C)c(=N)nc21 | -46.6% |
| CCc1nnc(NC(=O)CCN(c2ccc(C)cc2)S(=O)(=O)c2ccccc2)s1 | 13.2% |
| CCC1CCCCN1S(=O)(=O)c1ccc(C(=O)N(CCCN(C)C)c2nc3cc4c(cc3s2)OCO4)cc1.Cl (stereo not shown) | -56% |
| COc1ccc(OC)c(NC(=O)c2cnc(Nc3ccccc3OC)c3ccccc23)c1 | -7.53% |
| Cc1c(C(=O)NC(C)c2ccncc2)oc2ccccc12 (stereo not shown) | -29.7% |
| COc1ccc(Cl)cc1NC(=O)CN(C)C(=O)C12CC3CC(CC(Cl)(C3)C1)C2 | -29.1% |
| CN(C)CCNC(=O)c1ccc(CS(=O)(=O)c2ccc(Br)cc2)o1 | -3.14% |
| FC(F)(F)c1ccc2c(c1)nnn2C1CCN(Cc2nnnn2Cc2ccccc2)CC1 | -50.9% |
